Measured values reported in PMC6819661.
No constants are given. Whether binding was seen depends on the method and setting. For some assays here: Binding seen in cells or lysates may run through a third protein. Some binding calls cover weakened binding; strength is not graded here.

Tests used:
[1] = target: ZIKV prM protein (from virus-infected or viral RNA-transfected cells) (Zika virus (Cambodian strain FSS13025)); assay: co-IP
[2] = target: ZIKV NS2B protein (from virus-infected or viral RNA-transfected cells) (Zika virus (Cambodian strain FSS13025)); assay: co-IP
[3] = target: HA-NS2A (ZIKV NS2A with an N-terminal HA tag, expressed from HA-NS2A ZIKV) (Zika virus (Cambodian strain FSS13025)); assay: Western blot of whole-cell lysate; Whole-cell lysates of HA-NS2A ZIKV-infected Vero cells blotted with rabbit HA antibody; bands of monomer, dimer and higher oligomers
[4] = target: NS3-Flag expressed from plasmid pXJ-NS3-Flag (Zika virus); assay: co-IP; HEK293T cells cotransfected with pXJ-HA-NS2A and a plasmid for Flag-tagged prM, E, NS2B or NS3; 24 h p.t.; lysates precipitated with HA or Flag antibody (the target of a row is the precipitated protein); Western blot
[5] = target: prM-Flag expressed from plasmid pXJ-prM-Flag (Zika virus); assay: as above
[6] = target: NS2B-Flag expressed from plasmid pXJ-NS2B-Flag (Zika virus); assay: as above
[7] = target: HA-NS2A expressed from plasmid pXJ-HA-NS2A (Zika virus); assay: as above
[8] = target: HA-NS2A (ZIKV NS2A with an N-terminal HA tag, expressed from HA-NS2A ZIKV) (Zika virus (Cambodian strain FSS13025)); assay: co-IP
[9] = target: HA-NS2A (ZIKV NS2A with an N-terminal HA tag, expressed from HA-NS2A ZIKV) (Zika virus (Cambodian strain FSS13025)); assay: co-IP; Vero cells infected with HA-NS2A ZIKV at MOI 0.01, harvested at 72 h; lysate incubated with HA antibody in the presence or absence of RNase A (60 μg/ml) at 4°C overnight; Western blot

“HA-NS2A (ZIKV NS2A with an N-terminal HA tag, expressed from HA-NS2A ZIKV) (from UniProt A0A142I5B9 1147-1372)” was tested, and the binding [1] was “binds”, the binding [2] was “binds” and the binding [3] was “binds”.

In the case of “HA-NS2A expressed from plasmid pXJ-HA-NS2A (from UniProt A0A142I5B9 1147-1372)”, the binding [4] is reported as “binds”, the binding [5] is reported as “binds” and the binding [6] is reported as “binds”.

“NS2B-Flag expressed from plasmid pXJ-NS2B-Flag (from UniProt A0A142I5B9)” was tested, and the binding [7] was “binds”.

“NS3-Flag expressed from plasmid pXJ-NS3-Flag (from UniProt A0A142I5B9 1503-2119)” was tested, and the binding [7] was “binds”.

For “ZIKV NS1 protein (from virus-infected cells) (from UniProt A0A142I5B9 795-1146)”, the binding [8] was “no binding”.

In the case of “ZIKV NS2B protein (from virus-infected or viral RNA-transfected cells) (from UniProt A0A142I5B9)”, the binding [9] is reported as “binds”, the binding [8] is reported as “binds” and the binding [1] is reported as “no binding”.

“ZIKV NS3 protein (from virus-infected or viral RNA-transfected cells) (from UniProt A0A142I5B9 1503-2119)” was tested, and the binding [9] was “binds”, the binding [8] was “binds” and the binding [1] was “no binding”. The binding [2] was “binds”.

For “ZIKV NS4B protein (from virus-infected cells) (from UniProt A0A142I5B9 2270-2520)”, the binding [8] was “no binding”.

In the case of “ZIKV capsid (C) protein (from virus-infected cells) (from UniProt A0A142I5B9)”, the binding [8] is reported as “no binding”.

“ZIKV envelope (E) protein (from virus-infected or viral RNA-transfected cells) (from UniProt A0A142I5B9)” was tested, and the binding [9] was “binds”, the binding [8] was “binds” and the binding [1] was “binds”. For the same substance, the binding [2] was “no binding”.

In the case of “ZIKV prM protein (from virus-infected or viral RNA-transfected cells) (from UniProt A0A142I5B9)”, the binding [9] is reported as “binds”, the binding [8] is reported as “binds” and the binding [2] is reported as “no binding”.

“prM-Flag expressed from plasmid pXJ-prM-Flag (from UniProt A0A142I5B9)” was tested, and the binding [7] was “binds”.
